One experiment concerns the target T1, human Claudin 18.2 (Homo sapiens, UniProt P56856).
T1 construct: expressed in transfected cells; cells formaldehyde-fixed for the cell ELISA
As to the kind of experiment: Cell ELISA on L929-Claudin 18.2 cells. It is filed as binding. The procedure: Human Claudin18.2 belongs to the tetraspanin family and has a complex structure. Cell ELISA was thus carried out to maintain the structure of Claudin18.2. The stable cell lines L929-Claudin 18.2 constructed in 6.1 were used for detection. Specifically, L929-Claudin 18.2 adherent cells were detached by 2 mM EDTA treatment. The cells were resuspended and adjusted to 2×10^5/mL and 100 μL of the resuspension was plated into a 96-well plate and incubated overnight at 37° C. The next day, the media was removed, and the plate was washed with PBS once. 100 μL/well 4% formaldehyde was added to the plate. After 30 min of incubation at room temperature, formaldehyde was removed, followed by being washed twice with PBS. Blocking buffer (PBS containing 2% BSA) was then added to the plate at 100 μL/well, and incubated at 37° C. for 2 h. After removal of blocking buffer, 100 μL/well of serially diluted antibodies (starting from 1 μM, with 4-fold dilution, for a total of 11 concentrations) were added to the corresponding wells, which were incubated at 37° C. for 2 h afterwards. The plate was washed with 250 μL PBST for 5 times, and was allowed to stand for 2 min each time. 100 μL/well of horseradish peroxidase labeled anti-Human IgG secondary antibody (HRP-anti-Human IgG, Jackson ImmunoResearch, 109-035-003) diluted 1:10000 in PBS (containing 2% BSA) was added to the plate. The plate was incubated at 37° C. for 1 h and washed with 250 μL of PBST 6 times, wherein the plate was allowed to stand for 2 min each time. 100 μL/well of TMB solution (Thermo, 34029) was added. The reactions were incubated at 37° C. for 20 min and stopped with 50 μL 2 mol/L H2504. The OD450 nm absorbance values were obtained on a plate reader (MD, SpectraMax M2) and the results were subjected to curve fitting by Graphpad Prism.
A cell-based ELISA method was carried out to determine the affinity of 2C6.9-TL001 (DAR: 7.12) to Claudin 18.2 on the surface of cell membrane. […]
On the technique in general: In an ELISA, binding on a coated surface is turned into a signal by an enzyme label.

Experiment [1] relates to HEK293T-Claudin 18.1 cells. As to the kind of experiment: Killing activity of 2C6.9-ADC (CCK8). It is filed as cell-based, human. The note with it: 48 h.
The subject of experiment [2] is NCI-N87-Claudin18.2 gastric cancer transplanted tumor. As to the kind of experiment: 12.1 NCI-N87-Claudin18.2 + Balb/c Nude mice CDX model. The note with it: 2C6.9-TL001 DAR 7.12, 2C6.9-TL002 DAR 6.95. It is filed as in vivo.
Experiment [3] concerns HEK293T-Claudin 18.2 cells. As to the kind of experiment: Killing activity of 2C6.9-ADC (CCK8). It is filed as cell-based, human. The note with it: DAR 7.12; HEK293T-Claudin 18.2 vs HEK293T-Claudin 18.1.
The subject of experiment [4] is NCI-N87-Claudin18.2 subcutaneous transplanted tumor. As to the kind of experiment: 12.2 2C6.9-TL001 versus 2C6.9 mAb + chemotherapy in CDX model. The note with it: DAR 7.12. It is filed as in vivo, Balb/c Nude mice.
In experiment [5] the test system is NUGC-4 subcutaneous transplantation tumor. As to the kind of experiment: 12.3 2C6.9-TL001 with different DAR values in CDX (NUGC-4) model. It is filed as in vivo, Balb/c Nude mice. The conditions noted are these: Day 21.
Experiment [6] concerns HuPrime gastric cancer GA0006 (high expression Claudin18.2 stomach tumor). As to the kind of experiment: 12.4 HuPrime gastric cancer GA0006 + Balb/c Nude mice PDX model. It is filed as in vivo. The conditions noted are these: DAR 7.12.
Where [7] appears, read: 1 mg/kg tail vein twice a week x6, Day 21, 7 mice/group.
[8] abbreviates: 1 mg/kg tail vein twice a week x6, Day 21.
The mark [9] stands for this setting: 3 mg/kg tail vein twice a week x6, Day 21, 7 mice/group.
[10] abbreviates: 3 mg/kg tail vein twice a week x6, Day 21.
Setting [11] is: 3 mg/kg tail vein twice a week for 3 weeks, Day 21, 7 mice/group.
Where [12] appears, read: 3 mg/kg tail vein twice a week for 3 weeks.
[13] abbreviates: 10 mg/kg tail vein twice a week for 3 weeks.

B1: 2C6.9-hz11: humanized anti-human Claudin 18.2 IgG1 kappa monoclonal antibody; heavy chain SEQ ID NO: 18, light chain SEQ ID NO: 20 (antibody)
heavy: QVQLQESGPGLVKPSETLSLTCTVSGFSLTRYGVSWIRQPPGKGLEWIGVIWGDGNTNYNPSLKSRVTISKDSSKSQVSLKLSSVTAADTAVYYCARVNFGNALDYWGQGTLVTVSS[human IgG1 constant region not spelt out]
light: DIVMTQSPDSLAVSLGERATINCKSSQSLLNSGNQKNYLTWYQQKPGQPPKLLIYWASTRDSGVPDRFSGSGSGTDFTLTISSLQAEDVAVYYCQNDFIFPLTFGGGTKVEIKRTVAAPSVFIFPPSDEQLKSGTASVVCLLNNFYPREAKVQWKVDNALQSGNSQESVTEQDSKDSTYSLSSTLTLSKADYEKHKVYACEVTHQGLSSPVTKSFNRGEC
modifications: Full length amino acid sequence of heavy chain of humanized antibody 2C6.9-hz11; Full length amino acid sequence of light chain of humanized antibody 2C6.9-hz11/2C6.9-hz21
Regarding B1, in the experiment with human Claudin 18.2 (L929-Claudin 18.2 cell ELISA, same experiment, result omitted), the “affinity to human Claudin 18.2 (in words)” value is on record as “close to that of antibody 2C6.9-hz21”.

B2: 2C6.9-TL002: ADC prepared by conjugating TL002 with humanized monoclonal antibody 2C6.9 (conjugate)
heavy: QVQLQESGPGLVKPSETLSLTCTVSGFSLTRYGVSWIRQPPGKGLEWIGVIWGEGNTNYNPSLKSRVTISKDSSKSQVSLKLSSVTAADTAVYYCARVNFGNALDYWGQGTLVTVSS[human IgG1 constant region not spelt out]
light: DIVMTQSPDSLAVSLGERATINCKSSQSLLNSGNQKNYLTWYQQKPGQPPKLLIYWASTRDSGVPDRFSGSGSGTDFTLTISSLQAEDVAVYYCQNDFIFPLTFGGGTKVEIKRTVAAPSVFIFPPSDEQLKSGTASVVCLLNNFYPREAKVQWKVDNALQSGNSQESVTEQDSKDSTYSLSSTLTLSKADYEKHKVYACEVTHQGLSSPVTKSFNRGEC
As for B2, the “EC50 for killing HEK293T-Claudin18.1” value in experiment [1] was 30.59 µg/mL. Moreover, in experiment [2] (setting [7]), the “Tumor regression CR (mice with complete regression)” value (“Tumor regression CR” below) was 0/0 and the “Tumor regression PR (mice with partial regression)” value (shortened to “Tumor regression PR”) was 0/0. Moreover, in experiment [2] (setting [8]), the “T/C (%)” value is 95.94% and the “Tumor volume (mm^3) (x ± SEM)” value is on record as 461.02 ± 36.32 mm^3. In experiment [2] (setting [9]), the “Tumor regression CR” value was determined as 0 and the “Tumor regression PR” value is recorded as 1. In addition, in experiment [2] (setting [10]), the “T/C (%)” value was 70.62%, the “TGI (%)” value is given as 40.11% and the “Tumor volume (mm^3) (x ± SEM)” value is recorded as 339.28 ± 43.91 mm^3.

B3: 2C6.9-TL001 (DAR: 7.12): 2C6.9-TL001 from conjugation feed ratio 9:1, toxin-to-antibody ratio 7.12 (conjugate)
heavy: QVQLQESGPGLVKPSETLSLTCTVSGFSLTRYGVSWIRQPPGKGLEWIGVIWGEGNTNYNPSLKSRVTISKDSSKSQVSLKLSSVTAADTAVYYCARVNFGNALDYWGQGTLVTVSS[human IgG1 constant region not spelt out]
light: DIVMTQSPDSLAVSLGERATINCKSSQSLLNSGNQKNYLTWYQQKPGQPPKLLIYWASTRDSGVPDRFSGSGSGTDFTLTISSLQAEDVAVYYCQNDFIFPLTFGGGTKVEIKRTVAAPSVFIFPPSDEQLKSGTASVVCLLNNFYPREAKVQWKVDNALQSGNSQESVTEQDSKDSTYSLSSTLTLSKADYEKHKVYACEVTHQGLSSPVTKSFNRGEC
For B3, in the experiment with human Claudin 18.2 (cell-based ELISA, L929-Claudin 18.2 cells, DAR 7.12), the “EC50 value of the affinity to Claudin 18.2 on the cell membrane surface” value was 0.03994 µg/mL. The “difference of killing activity, Claudin 18.2 cells versus Claudin 18.1 cells” value in experiment [3] is “about 8 times”. Also, the “EC50 for killing HEK293T-Claudin18.1” value in experiment [1] stood at 3.9 µg/mL. In addition, the “Tumor regression CR” value in experiment [4] (setting [11]) was 5; in experiment [6] (10 mg/kg tail vein twice a week x5, Day 17, 7 mice/group), 7; in experiment [6] (10 mg/kg tail vein twice a week x5, Day 24, 7 mice/group), 7. For the same molecule, the “Tumor regression PR” value is given as 2 in experiment [4] (setting [11]); 6 in experiment [4] (3 mg/kg tail vein twice a week, Day 11, 7 mice/group); 4 in experiment [6] (3 mg/kg tail vein twice a week x5, Day 17, 7 mice/group); 6 in experiment [6] (3 mg/kg tail vein twice a week x5, Day 24, 7 mice/group). The “TGI (%)” value in experiment [4] (3 mg/kg tail vein twice a week for 3 weeks, Day 21) stood at 125.73%; in experiment [4] (3 mg/kg tail vein twice a week, Day 11), 121.68%; in experiment [5] (setting [12]) it was 49.60%; in experiment [5] (setting [13]), 87.17%; in experiment [6] (3 mg/kg tail vein twice a week x5, Day 17), 94.72%; in experiment [6] (3 mg/kg tail vein twice a week x5, Day 24) it was 103.76%. Moreover, in experiment [6] (10 mg/kg tail vein twice a week x5, Day 24), the “TGI (%)” value was determined as 113.70%. The “Tumor volume (mm^3) (x ± SEM)” value was 670.96 ± 113.92 mm^3 in experiment [5] (setting [12]) and 250.04 ± 28.73 mm^3 in experiment [5] (setting [13]).

B4: 2C6.9-TL003: ADC prepared by conjugating TL003 with humanized monoclonal antibody 2C6.9 (conjugate)
heavy: QVQLQESGPGLVKPSETLSLTCTVSGFSLTRYGVSWIRQPPGKGLEWIGVIWGEGNTNYNPSLKSRVTISKDSSKSQVSLKLSSVTAADTAVYYCARVNFGNALDYWGQGTLVTVSS[human IgG1 constant region not spelt out]
light: DIVMTQSPDSLAVSLGERATINCKSSQSLLNSGNQKNYLTWYQQKPGQPPKLLIYWASTRDSGVPDRFSGSGSGTDFTLTISSLQAEDVAVYYCQNDFIFPLTFGGGTKVEIKRTVAAPSVFIFPPSDEQLKSGTASVVCLLNNFYPREAKVQWKVDNALQSGNSQESVTEQDSKDSTYSLSSTLTLSKADYEKHKVYACEVTHQGLSSPVTKSFNRGEC
Turning to B4, the “EC50 for killing HEK293T-Claudin18.1” value in experiment [1] stood at 8.258 µg/mL.

Values taken from patent publication US20230338565A1, “ANTIBODY DRUG CONJUGATE, PREPARATION METHOD THEREFOR AND USE THEREOF” (SICHUAN KELUN-BIOTECH BIOPHARMACEUTICAL CO., LTD., priority 2020, published 2023).
